# Data reported in the supplement of paper PMC11417369.
# Some of the results follow.
# System: PfSIP2 AP2 domain 1 (GST-tagged)
# Experiment: gcPBM binding intensity (ln(normalized median fluorescence intensity)); higher = stronger DNA binding
# Procedure, shortened: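 Binding intensity is defined as the maximum Masliner-normalised natural-log median intensity across replicate spots for either probe orientation. It was measured on an Agilent 4 × 180k array of primer-extended double-stranded 36-bp intergenic genomic probes and negative controls, to which GST-tagged P. falciparum DNA-binding domains made in E. coli were applied for 1 h in 1× PBS with 1% milk, 0.2 mg/ml BSA, 0.5% salmon testes DNA and 0.03% Triton X-100. Detection was by Alexa488 anti-GST antibody and scanning at 488 nm.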
row,Sequence,gcPBM binding intensity (ln)
1,CAACACTTTCAAAAATGTACGTACAAATGTATTTTA [XGTACX_site6713],7.11
2,AGTTTCCATATGAGGTGTACATATATAATTTATTAT [XGTACX_site2369],7.32
3,ACAAAATAAAGACACACACACAAACACAAAAAAATA [CACACA_site7568],7.14
4,TTTTTTTTCTAAATTATATGAAAATATATGTTATGT [GTGCAC_negctrl_site85],7.01
5,TACATAAACATTTATACACACATTATAAATACATAT [CACACA_site4386],7.08
6,ACAATTTTAAAATGAACACACATGTTTTTCTTACTT [CACACA_site1014],7.02
7,ATTTTCTATTTTATTTGTACGTAATTTAATTTTTTT [XGTACX_site3609],7.5
8,TCCCAATTTCTATCCTGTACAGACATAAATATATAC [XGTACX_site5937],7.4
9,AAGTAATTTGTTGACACACACACACGCATACCTATA [CACACA_site7140],7.15
10,ATAAAGATTAATAAAATAAAATTCCGCAAACATATA [CACACA_negctrl_site244],6.84
11,TTTTGAAATTTTTGTGTTTTTCCTTTTTATTTTATA [CACACA_negctrl_site1740],6.44
12,ATAAATCCATGTAACTGTACTTTTTTTTTTTTTTTT [XGTACX_site7373],7.44
13,ATTATATATATATATATATATATATATATATTATAT [CACACA_negctrl_site234],7.97
14,AATGTAATATAAATATGTACATATAAACTATATATA [XGTACX_site6871],7.03
15,ACTTATGATTTATTTTGTACATATATACTATTCCTG [XGTACX_site5275],7.21
16,GTTTTAAAACAAATATGTACACATAATATAGGAAAG [XGTACX_site1803],7.63
17,ACAAATACTAACAACGCATGTAAGCCTACAATAAAT [TGCATGCA_site551],6.86
18,GCTCCTTTTACCATCGCACACGATAAAAAAAAATAA [CACACA_site3255],8.13
19,ATCCTCTTTTTAAGTTGTACAGGGTCGAAAAAAAAA [XGTACX_site6852],7.27
20,GATTATTATTATAAGGGTACAAATATTTAATAAAAA [XGTACX_site7144],7.03
21,CATGTCAAAATTATACGTACATATATAAGTTCCATT [XGTACX_site6331],7.08
22,AAAAAAAAATAAAAAAGTACATTCATTTTATAAGAT [XGTACX_site3507],6.95

row,Sequence,gcPBM binding intensity (ln)
1,AGATAGCTATTAAAAAGTACAAAAAAATATATATAT [XGTACX_site6289],8.24
2,ATAAATACAGATATTACACACTTCTTATTCTAAGAA [CACACA_site5640],6.81
3,TATTTTATATAAAGGTGTACTTATACAAAAATATAT [XGTACX_site7435],7.22
4,TATACAGGAATATTTTTACACACTAATAATTATAAA [CACACA_site8477],7.02
5,TTTTTTCAAATTATTCGATATGTAAAAAAATAAAAT [GTGCAC_negctrl_site241],6.97
6,AAATATTTGTGTGGTTGTACTATAATGATAAAAATA [XGTACX_site7703],7.27
7,TTTTTTTTTTTTGAGTGTACAAGATTGTTGTTCCAA [XGTACX_site6120],6.9
8,GGTTTGAATTTTTAAGTGCATATAACATAAATGAAA,8.89
9,TTATATTATATATATATTATATATATGTATGCATAA [TGCATGCA_negctrl_site481],7.16
10,CATACATACAAACACACACACATATATATATATATA [CACACA_site43],9.75
11,AATAAGTGTTGATTCTTAAAATGACCATATAATAAT [TGCATGCA_negctrl_site221],7.09
12,TCATATTTACAAAAAGGTATTAATAAATAAAATATT [CACACA_negctrl_site259],6.82
13,ATATTAGGGTCATGAACACACAAAAAAAAAAAAAAA [CACACA_site937],7.04
14,TATCTTTTATAAGTGACACACATAAATATTTAAATT [CACACA_site833],7.03
15,GCTATCATATCATGTTGTACACAACCTCAAAATGAA [XGTACX_site8757],7.4
16,TTTAATTCTTATATTTGTACAGATTCATAATTAAAT [XGTACX_site7465],6.88
17,CGTTTATTAAACTTGACACACACACCCCCACATATA [CACACA_site8151],7.84
18,AATCGATAACAATGTAGTACCAGAAAAATAAATATT [XGTACX_site8501],6.99
19,TATATATATATATATGCATGCCATATGATATATATA [TGCATGCA_site109],9.35
20,ATTATATCACTGTGTTGTACTTCTTATATAAAAATA [XGTACX_site2333],7.02
21,ACATATCGGGTGCATTAACACACATTTATTTGAATA [CACACA_site8736],11.6
22,TCCGTATAATTTTGCACACGAATATAAATTTGATAA [CACACA_site136],7.6

row,Sequence,gcPBM binding intensity (ln)
1,ATAAAAATAAAATGGACACACATATATACATATTTG [CACACA_site3277],6.84
2,AATTATAATAAATAACGTACAAAAAATAAATTATTT [XGTACX_site3627],7.1
3,TATATATTCATGTGTACACACAAAAAAAAATAAAGT [CACACA_site2207],7.51
4,ATAAGCGAATATATATCACACACAAAAAAATCAGAC [CACACA_site8657],7.65
5,TTTTTTTTTGATATTTGTACTTAAGTAAATATTATA [XGTACX_site3843],6.88
6,ATATTACACAGATATGCACACATTGTAGTTATTTAT [CACACA_site5454],8.57
7,AAAAAGGAAATTTACACACACATATAACATACATTA [CACACA_site7534],7.03
8,AATGTATTATGTAATAGTACGTATAATATCTTATTT [XGTACX_site3],6.89
9,ATACATATCTATAATACACACATAAATGTAACATTT [CACACA_site7621],7.32
10,TTCTACGTTTTAAAAAAAAAAAAAAAAAAAAAAAAA [XGTACX_negctrl_site6],6.95
11,TGAAGATAAAAATATGCACACATATATATATATATA [CACACA_site8027],9.77
12,CATAAAAATGAACATACACACATATATTTATTTATA [CACACA_site7222],6.85
13,ACATATTATAGGAATACACACAAAAACTTATCGGTA [CACACA_site7587],7.01
14,ATTATATATATTGGAGTGCATATATAGTATTTTATA,8.45
15,ATAGAAATCTATTGTGATTATTATTTTATTTTTAGT [XGTACX_negctrl_site605],6.72
16,AAAAAGAATATAAGTAGTACAGTGCATATAATAATT [XGTACX_site617],8.39
17,TTTTACTCTTAAAATAATAAAAAATATTCACATTTA [CACACA_negctrl_site1508],6.6
18,AATTAATGTTTTGTCACACAGTATGATTATATATAT [CACACA_site6143],7.4
19,TATAATTTTTTTAATACACACAAATATTTATATATA [CACACA_site3042],6.87
20,TATATATACATATACGCATGTAAATTCAAAAGTAAA [TGCATGCA_site956],7.12
21,AAGAGAAATGGGCACACACACACATATTATATATAT [CACACA_site1531],7.66
22,TTAGTATATTTTTCCTGTACGTACTCAGATACAAAT [XGTACX_site7397],7.61

row,Sequence,gcPBM binding intensity (ln)
1,TACACATTATGTATCATACACACAAATAAATATATA [CACACA_site608],7.1
2,TTAAATAATTTTTAATGTACATTAAATTTATTATTA [XGTACX_site261],6.86
3,AATAATAACAAATGAACACACATATATATGAGCAAA [CACACA_site2121],6.86
4,TTGATATAAAAAGAAAGTACTTTATAGATGTTTATT [XGTACX_site8144],6.93
5,TATAAAAATATATATATATATATATATATATATATA [TGCATGCA_negctrl_site541],9.37
6,TTCTCCATCAGATACTGTACATAATATATATAATAT [XGTACX_site8827],7.31
7,TGTATAACCTGTGTTACACACATTAGAATTTATATA [CACACA_site6393],6.82
8,GCATCATTTATTTGCACACCTATTATATACTTTTTA [CACACA_site2098],7.38
9,TACATAAACTTTATAACACACACTTATATATATATA [CACACA_site1106],9.34
10,TATATAAAGATATATACACACAAAAAAAAAAAAAAA [CACACA_site6778],7.06
11,ACGTATGTATATTACACACATACATATTATTCACTA [CACACA_site204],7.03
12,TATTTATAACATTGTACACACAAAGAAATAATATTA [CACACA_site7422],7.29
13,CATATATAACATATAACACACATACTTAGTATTACA [CACACA_site5674],6.98
14,ATGATAAACATGGATACACACATATATATTACATAT [CACACA_site1576],7.17
15,ATAATATTTTATATAGTGCATTTGCTCATTATATAT [GTGCAC_site9528],7.96
16,ACATATATATACTATCGATTAATAAATTTGTTTTTT [CACACA_negctrl_site881],7
17,TGAGTATATATAAATACACACCAAATGTTAATATAT [CACACA_site5022],6.8
18,AGGTTAATCGAAATTGCATGTGACGAAAAATCAAAA [TGCATGCA_site666],6.91
19,CAAATACATGGACACACACACATATACAGATATATA [CACACA_site5854],7.18
20,TTTTTTTTTTTTTTCTGTACTTAAAAAGGGGGAGAA [XGTACX_site3799],7.66
21,CAAACATGTTCAAATTGTACAATAGAAAATATATAT [XGTACX_site1557],7.22
22,TTGAAGTTTGATTGTAGTACGAATTGGTAGTTTTTT [XGTACX_site6854],6.73
